# From the supplement of paper PMC8728848
# Some of the results follow.
# B1: PX9961A-pdi-456-24-456 (Parabacteroides distasonis) (protein)
# chain: KTSSTQLPTIDAISSVADLTNAVNGVYEQQATEVGSYGAEFTLLADLRSGDFQSISTVNHAGPMYRYQTGKNDEMVYSFYKLFYNSLARLNNVLAAAENLEGADVDILKGELYAMRALYHFDLARVFAKLPSTTDMNDLGIVLSTEVYPTDYIGTRATLQQTYDQILKDIETALPLLSKDKQTGHINYWGALAIRARAYLYLEKNKEALADCKEIIASSPYKLYTRDEYIGAWDKEGTNEAIFEILVTPNYNAQRNSIGYFTHASGYGECAATESFLEELAKHPGDIRTELFAKETDNGYDGTYPQKYKGRDGQIYVNNPKVVRLSEVYLIAAEAALKAGDTSAAAGYMNTLRKNRIENYTDVASITLDDILLERRLELFTEGHTAWDAWRNGKSVNNKFVGEVKPGDYRTIMAIPIGEITVSRGQLIQNPGY
# What was measured:
# Test in all cases: glycan array binding signal (z-score within array); higher = stronger binding
# Conditions in all cases: glycan notation: IUPAC condensed, linker removed
# [1] = target: Gal(b1-3)[Fuc(a1-4)]GlcNAc(b1-3)Gal(b1-4)[Fuc(a1-3)]GlcNAc
# Method in brief: (§1)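 Negative Z-scores can be read as non-binding. The Z-score is calculated within each array and then averaged across arrays of one protein sequence at different concentrations or buffers and across linkers. Arrays, 3228 in all, were curated from the Consortium for Functional Glycomics database and kept only where the protein sequence was available.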
# [2] = target: Gal(b1-3)[Fuc(a1-4)]GlcNAc(b1-6)GalNAc
# Method in brief: as §1
# [3] = target: Gal(b1-3)[GlcNAc(b1-6)]GalNAc
# Method in brief: as §1
# [4] = target: Gal(b1-3)[Neu5Ac(a2-6)]GalNAc
# Method in brief: as §1
# [5] = target: Gal(b1-3)[Neu5Ac(a2-6)]GlcNAc(b1-4)Gal(b1-4)Glc
# Method in brief: as §1
# [6] = target: Gal(b1-3)[Neu5Ac(b2-6)]GalNAc
# Method in brief: as §1
# [7] = target: Gal(b1-4)Gal
# Method in brief: as §1
# [8] = target: Gal(b1-4)GalNAc(a1-3)[Fuc(a1-2)]Gal(b1-4)GlcNAc
# Method in brief: as §1
# [9] = target: Gal(b1-4)GalNAc(b1-3)[Fuc(a1-2)]Gal(b1-4)GlcNAc
# Method in brief: as §1
# [10] = target: Gal(b1-4)Glc
# Method in brief: as §1
# [11] = target: Gal(b1-4)Glc6S
# Method in brief: as §1
# [12] = target: Gal(b1-4)GlcNAc
# Method in brief: as §1
# [13] = target: Gal(b1-4)GlcNAc(a1-6)Gal(b1-4)GlcNAc
# Method in brief: as §1
# [14] = target: Gal(b1-4)GlcNAc(b1-2)Man
# Method in brief: as §1
# [15] = target: Gal(b1-4)GlcNAc(b1-2)Man(a1-3)Man(b1-4)GlcNAc(b1-4)GlcNAc
# Method in brief: as §1
# [16] = target: Gal(b1-4)GlcNAc(b1-2)Man(a1-3)[Gal(b1-4)GlcNAc(b1-2)Man(a1-6)]Man(b1-4)GlcNAc(b1-4)GlcNAc
# Method in brief: as §1
# [17] = target: Gal(b1-4)GlcNAc(b1-2)Man(a1-3)[Gal(b1-4)GlcNAc(b1-2)Man(a1-6)]Man(b1-4)GlcNAc(b1-4)[Fuc(a1-6)]GlcNAc
# Method in brief: as §1
# [18] = target: Gal(b1-4)GlcNAc(b1-2)Man(a1-3)[Gal(b1-4)GlcNAc(b1-2)Man(a1-6)][Gal(b1-4)GlcNAc(b1-4)]Man(b1-4)GlcNAc(b1-4)[Fuc(a1-6)]GlcNAc
# Method in brief: as §1
# [19] = target: Gal(b1-4)GlcNAc(b1-2)Man(a1-3)[Gal(b1-4)GlcNAc(b1-2)Man(a1-6)][GlcNAc(b1-4)]Man(b1-4)GlcNAc(b1-4)[Fuc(a1-6)]GlcNAc
# Method in brief: as §1
# [20] = target: Gal(b1-4)GlcNAc(b1-2)Man(a1-3)[GlcNAc(b1-2)Man(a1-6)]Man(b1-4)GlcNAc(b1-4)GlcNAc
# Method in brief: as §1
# [21] = target: Gal(b1-4)GlcNAc(b1-2)Man(a1-3)[GlcNAc(b1-4)][Gal(b1-4)GlcNAc(b1-2)Man(a1-6)]Man(b1-4)GlcNAc(b1-4)GlcNAc
# Method in brief: as §1
# [22] = target: Gal(b1-4)GlcNAc(b1-2)Man(a1-3)[Man(a1-6)]Man(b1-4)GlcNAc(b1-4)GlcNAc
# Method in brief: as §1
# [23] = target: Gal(b1-4)GlcNAc(b1-2)Man(a1-6)Man(b1-4)GlcNAc(b1-4)GlcNAc
# Method in brief: as §1
# [24] = target: Gal(b1-4)GlcNAc(b1-2)Man(a1-6)[GlcNAc(b1-2)Man(a1-3)]Man(b1-4)GlcNAc(b1-4)GlcNAc
# Method in brief: as §1
# [25] = target: Gal(b1-4)GlcNAc(b1-2)Man(a1-6)[Man(a1-3)]Man(b1-4)GlcNAc(b1-4)GlcNAc
# Method in brief: as §1
# [26] = target: Gal(b1-4)GlcNAc(b1-2)[Gal(b1-4)GlcNAc(b1-4)]Man(a1-3)[Gal(b1-4)GlcNAc(b1-2)Man(a1-6)]Man(b1-4)GlcNAc(b1-4)GlcNAc
# Method in brief: as §1
# [27] = target: Gal(b1-4)GlcNAc(b1-2)[Gal(b1-4)GlcNAc(b1-4)]Man(a1-3)[Gal(b1-4)GlcNAc(b1-2)[Gal(b1-4)GlcNAc(b1-6)]Man(a1-6)]Man(b1-4)GlcNAc(b1-4)GlcNAc
# Method in brief: as §1
# [28] = target: Gal(b1-4)GlcNAc(b1-2)[Gal(b1-4)GlcNAc(b1-4)]Man(a1-3)[GlcNAc(b1-4)][Gal(b1-4)GlcNAc(b1-2)Man(a1-6)]Man(b1-4)GlcNAc(b1-4)GlcNAc
# Method in brief: as §1
# [29] = target: Gal(b1-4)GlcNAc(b1-2)[Gal(b1-4)GlcNAc(b1-4)]Man(a1-3)[GlcNAc(b1-4)][Gal(b1-4)GlcNAc(b1-2)[Gal(b1-4)GlcNAc(b1-6)]Man(a1-6)]Man(b1-4)GlcNAc(b1-4)GlcNAc
# Method in brief: as §1
# [30] = target: Gal(b1-4)GlcNAc(b1-2)[Gal(b1-4)GlcNAc(b1-6)]Man(a1-6)[Gal(b1-4)GlcNAc(b1-2)Man(a1-3)]Man(b1-4)GlcNAc(b1-4)GlcNAc
# Method in brief: as §1
# [31] = target: Gal(b1-4)GlcNAc(b1-2)[Gal(b1-4)GlcNAc(b1-6)]Man(a1-6)[Gal(b1-4)GlcNAc(b1-2)Man(a1-3)]Man(b1-4)GlcNAc(b1-4)[Fuc(a1-6)]GlcNAc
# Method in brief: as §1
# [32] = target: Gal(b1-4)GlcNAc(b1-2)[Gal(b1-4)GlcNAc(b1-6)]Man(a1-6)[GlcNAc(b1-4)][Gal(b1-4)GlcNAc(b1-2)Man(a1-3)]Man(b1-4)GlcNAc(b1-4)GlcNAc
# Method in brief: as §1
# [33] = target: Gal(b1-4)GlcNAc(b1-2)[Gal(b1-4)GlcNAc(b1-6)]Man(a1-6)[GlcNAc(b1-4)][Gal(b1-4)GlcNAc(b1-2)[Gal(b1-4)GlcNAc(b1-4)]Man(a1-3)]Man(b1-4)GlcNAc(b1-4)[Fuc(a1-6)]GlcNAc
# Method in brief: as §1
# [34] = target: Gal(b1-4)GlcNAc(b1-3)Gal(b1-3)GalNAc
# Method in brief: as §1
# [35] = target: Gal(b1-4)GlcNAc(b1-3)Gal(b1-3)GlcNAc
# Method in brief: as §1
# [36] = target: Gal(b1-4)GlcNAc(b1-3)Gal(b1-4)Glc
# Method in brief: as §1
# [37] = target: Gal(b1-4)GlcNAc(b1-3)Gal(b1-4)GlcNAc
# Method in brief: as §1
# [38] = target: Gal(b1-4)GlcNAc(b1-3)Gal(b1-4)GlcNAc(b1-2)Man(a1-3)[Gal(b1-4)GlcNAc(b1-3)Gal(b1-4)GlcNAc(b1-2)Man(a1-6)]Man(b1-4)GlcNAc(b1-4)GlcNAc
# Method in brief: as §1
binder,measurement,setting,value
B1,glycan array binding signal (z-score),[1],0.361
same,glycan array binding signal (z-score),[2],0.334
same,glycan array binding signal (z-score),[3],0.072
same,glycan array binding signal (z-score),[4],-0.243
same,glycan array binding signal (z-score),[5],-0.197
same,glycan array binding signal (z-score),[6],-0.243
same,glycan array binding signal (z-score),[7],-0.408
same,glycan array binding signal (z-score),[8],-0.34
same,glycan array binding signal (z-score),[9],-0.317
same,glycan array binding signal (z-score),[10],-0.498
same,glycan array binding signal (z-score),[11],0.231
same,glycan array binding signal (z-score),[12],-0.072
same,glycan array binding signal (z-score),[13],-0.465
same,glycan array binding signal (z-score),[14],0.697
same,glycan array binding signal (z-score),[15],-0.263
same,glycan array binding signal (z-score),[16],0.262
same,glycan array binding signal (z-score),[17],0.395
same,glycan array binding signal (z-score),[18],0.133
same,glycan array binding signal (z-score),[19],0.085
same,glycan array binding signal (z-score),[20],-0.158
same,glycan array binding signal (z-score),[21],-0.027
same,glycan array binding signal (z-score),[22],0.546
same,glycan array binding signal (z-score),[23],-0.264
same,glycan array binding signal (z-score),[24],-0.302
same,glycan array binding signal (z-score),[25],-0.241
same,glycan array binding signal (z-score),[26],-0.052
same,glycan array binding signal (z-score),[27],-0.394
same,glycan array binding signal (z-score),[28],0.503
same,glycan array binding signal (z-score),[29],-0.446
same,glycan array binding signal (z-score),[30],0.225
same,glycan array binding signal (z-score),[31],2.12
same,glycan array binding signal (z-score),[32],0.206
same,glycan array binding signal (z-score),[33],-0.001
same,glycan array binding signal (z-score),[34],-0.575
same,glycan array binding signal (z-score),[35],0.087
same,glycan array binding signal (z-score),[36],-0.107
same,glycan array binding signal (z-score),[37],-0.507
same,glycan array binding signal (z-score),[38],2.2
